Each compound was assayed on MLKL phosphorylation, HT29-L23 human colorectal adenocarcinoma cells. Conditions: read-out: pMLKL HCS Cell Assay (IC50).

Structure (SMILES)	IC50
COc1ncc(-c2cc(CN3CCC(F)(F)CC3)c3c(N)ncnn23)cc1C(=O)N[C@@H]1CN(C(=O)OC(C)CC(F)(F)F)C[C@@H]1F (stereo partly drawn) [Example 1506, 4,4,4-trifluorobutan-2-yl (3R,4S)-3-(5-{4-amino-5-[(4,4-difluoropiperidin-1-yl)methyl]pyrrolo[2,1-f][1,2,4]triazin-7-yl}-2-methoxypyridine-3-amido)-4-fluoropyrrolidine-1-carboxylate]	4.3 nM
CCOc1ccc(-c2cc(C(F)(F)F)c3c(N)ncnn23)cc1C(=O)N[C@@H]1CN(C(=O)C2CC(F)C2)C[C@@H]1F (stereo partly drawn) [Example 1114, 5-[4-amino-5-(trifluoromethyl)pyrrolo[2,1-f][1,2,4]triazin-7-yl]-2-ethoxy-N-[(3R,4S)-4-fluoro-1-(3-fluorocyclobutanecarbonyl)pyrrolidin-3-yl]benzamide]	6.4 nM
COc1ncc(-c2cc(CN3CCC(F)(F)CC3)c3c(N)ncnn23)cc1C(=O)N[C@@H]1CN(C(=O)OC(C)C(F)(F)C(F)(F)F)C[C@@H]1F (stereo partly drawn) [Example 1536, 3,3,4,4,4-pentafluorobutan-2-yl (3R,4S)-3-(5-{4-amino-5-[(4,4-difluoropiperidin-1-yl)methyl]pyrrolo[2,1-f][1,2,4]triazin-7-yl}-2-methoxypyridine-3-amido)-4-fluoropyrrolidine-1-carboxylate]	7.9 nM
Cc1cc(C)c(-c2cc(C(F)(F)F)c3c(N)ncnn23)cc1C(=O)N[C@@H]1CN(C(=O)C2CC(F)C2)C[C@@H]1F (single isomer, unassigned) [Example 535]	28 nM
[2H]C([2H])([2H])Oc1nc(C)c(-c2cc(C(F)(F)F)c3c(N)ncnn23)cc1C(=O)NC1CN(C(=O)C2CCC(F)(F)C2)C[C@@H]1F (single isomer, unassigned) [Example 515]	196 nM
Cc1cc(F)c(-c2cc(C(F)(F)F)c3c(N)ncnn23)cc1C(=O)N[C@@H]1CN(C(=O)C2CC2(F)F)C[C@@H]1F (single isomer, unassigned) [Example 861]	6.1 nM
COc1ncc(-c2cc(C(F)(F)F)c3c(N)ncnn23)cc1C(=O)N[C@@H]1CN(C(C)c2cncnc2)C[C@@H]1F (stereo partly drawn) [Example 1389, 5-[4-amino-5-(trifluoromethyl)-pyrrolo[2,1-f][1,2,4]triazin-7-yl]-N-[(3R,4S)-4-fluoro-1-[1-(pyrimidin-5-yl)ethyl]-pyrrolidin-3-yl]-2-methoxy-pyridine-3-carboxamide]	85 nM
COc1ncc(-c2cc(C(F)(F)F)c3c(N)ncnn23)cc1C(=O)N[C@@H]1CN(C(C)c2cncnc2)C[C@@H]1F (stereo partly drawn) [Example 1395, 5-[4-amino-5-(trifluoromethyl)-pyrrolo[2,1-f][1,2,4]triazin-7-yl]-N-[(3R,4S)-4-fluoro-1-[1-(pyrimidin-5-yl)ethyl]-pyrrolidin-3-yl]-2-methoxy-pyridine-3-carboxamide]	10 nM
COc1ncc(-c2cc(C(F)(F)F)c3c(N)ncnn23)cc1C(=O)NC1CN(C(=O)OC(C)C(F)(F)C(F)(F)F)C[C@@H]1F (stereo partly drawn) [Example 1456, 3,3,4,4,4-pentafluorobutan-2-yl (3R,4S)-3-{5-[4-amino-5-(trifluoromethyl)pyrrolo[2,1-f][1,2,4]triazin-7-yl]-2-methoxypyridine-3-amido}-4-fluoropyrrolidine-1-carboxylate]	97 nM
COc1ncc(-c2cc(C(F)(F)F)c3c(N)ncnn23)cc1C(=O)NC1CN(C2CCCC2(C)O)C[C@@H]1F (stereo partly drawn) [Example 1408, 5-[4-amino-5-(trifluoromethyl)-pyrrolo[2,1-f][1,2,4]triazin-7-yl]-N-[(3R,4S)-4-fluoro-1-(2-hydroxy-2-methylcyclo-pentyl)-pyrrolidin-3-yl]-2-methoxypyridine-3-carbox-amide]	30 nM
Cc1cc(F)c(-c2cc(C(F)(F)F)c3c(N)ncnn23)cc1C(=O)N[C@@H]1CN(C(=O)C2CCC(F)(F)C2)C[C@@H]1F (stereo partly drawn) [Example 860, 5-[4-amino-5-(trifluoromethyl)pyrrolo[2,1-f][1,2,4]triazin-7-yl]-N-[(3R,4S)-1-(3,3-difluorocyclopentanecarbonyl)-4-fluoropyrrolidin-3-yl]-4-fluoro-2-methylbenzamide]	3.5 nM
Cc1ncc(-c2cc(C(F)(F)F)c3c(N)ncnn23)cc1C(=O)N1CCCC(C(O)c2ccc(F)cc2)C1 (single isomer, unassigned) [Example 1729, (5-(4-amino-5-(trifluoromethyl)pyrrolo[2,1-f][1,2,4]triazin-7-yl)-2-methylpyridin-3-yl)(3-((4-fluorophenyl)(hydroxy)methyl)piperidin-1-yl)methanone]	25 nM
COc1ncc(-c2cc(C(F)(F)F)c3c(N)ncnn23)cc1C(=O)NC1CN(C2CCCC2C(O)C(F)F)C[C@@H]1F (stereo partly drawn) [Example 1374, 5-[4-amino-5-(trifluoromethyl)-pyrrolo[2,1-f][1,2,4]triazin-7-yl]-N-[(3R,4S)-1-[2-(2,2-difluoro-1-hydroxyethyl)-cyclopentyl]-4-fluoro-pyrrolidin-3-yl]-2-methoxy-pyridine-3-carboxamide]	328 nM
COc1ncc(-c2cc(C(F)(F)F)c3c(N)ncnn23)cc1C(=O)NC1CN(C(=O)OC(C)C(F)(F)C(F)(F)F)C[C@@H]1F (stereo partly drawn) [Example 1458, 3,3,4,4,4-pentafluorobutan-2-yl (3R,4S)-3-{5-[4-amino-5-(trifluoromethyl)pyrrolo[2,1-f][1,2,4]triazin-7-yl]-2-methoxypyridine-3-amido}-4-fluoropyrrolidine-1-carboxylate]	8.2 nM
COc1ncc(-c2cc(C(F)(F)F)c3c(N)ncnn23)cc1C(=O)N[C@@H]1CN(C(C)c2ccncc2F)C[C@@H]1F (single isomer, unassigned) [Example 454]	4 nM
COc1cc(C(=O)N[C@@H]2CN(C(=O)C3CC(F)C3)C[C@@H]2F)cc(-c2cc(C(F)(F)F)c3c(N)ncnn23)c1 (stereo partly drawn) [Example 575, 3-[4-amino-5-(trifluoromethyl)pyrrolo[2,1-f][1,2,4]triazin-7-yl]-N-[(3R,4S)-4-fluoro-1-(3-fluorocyclobutanecarbonyl)pyrrolidin-3-yl]-5-methoxybenzamide]	13 nM
COc1ncc(-c2cc(C(F)(F)F)c3c(N)ncnn23)cc1C(=O)N[C@@H]1CN(C2CCCCC2(C)O)C[C@@H]1F (stereo partly drawn) [Example 1410, 5-[4-amino-5-(trifluoromethyl)-pyrrolo[2,1-f][1,2,4]triazin-7-yl]-N-[(3R,4S)-4-fluoro-1-(2-hydroxy-2-methylcyclohexyl)-pyrrolidin-3-yl]-2-methoxy-pyridine-3-carboxamide]	271 nM
COc1ncc(-c2cc(C(F)(F)F)c3c(N)ncnn23)cc1C(=O)NC1CN(C(=O)OCC2CC2(F)F)C[C@@H]1F (stereo partly drawn) [Example 1457, (2,2-difluorocyclopropyl)methyl (3R,4S)-3-{5-[4-amino-5-(trifluoromethyl)pyrrolo[2,1-f][1,2,4]triazin-7-yl]-2-methoxypyridine-3-amido}-4-fluoropyrrolidine-1-carboxylate]	7.3 nM
COc1ncc(-c2cc(C(F)(F)F)c3c(N)ncnn23)cc1C(=O)NC1CN(C2CCCC2C(O)C(F)F)C[C@@H]1F (stereo partly drawn) [Example 1373, 5-[4-amino-5-(trifluoromethyl)-pyrrolo[2,1-f][1,2,4]triazin-7-yl]-N-[(3R,4S)-1-[2-(2,2-difluoro-1-hydroxyethyl)-cyclopentyl]-4-fluoro-pyrrolidin-3-yl]-2-methoxy-pyridine-3-carboxamide]	20 nM
Cc1cc(F)c(-c2cc(C(F)(F)F)c3c(N)ncnn23)cc1C(=O)N[C@@H]1CN(C(=O)C2CC(F)C2)C[C@@H]1F (stereo partly drawn) [Example 418, 5-[4-amino-5-(trifluoromethyl)pyrrolo[2,1-f][1,2,4]triazin-7-yl]-4-fluoro-N-[(3R,4S)-4-fluoro-1-(3-fluorocyclobutanecarbonyl)pyrrolidin-3-yl]-2-methylbenzamide]	4.2 nM
COc1ncc(-c2cc(C(F)(F)F)c3c(N)ncnn23)cc1C(=O)NC1CN(CC(O)(C2CC2)C(F)(F)F)C[C@@H]1F (stereo partly drawn) [Example 1827, 5-(4-amino-5-(trifluoromethyl)pyrrolo[2,1-f][1,2,4]triazin-7-yl)-N-((3R,4S)-1-(2-cyclopropyl-3,3,3-trifluoro-2-hydroxypropyl)-4-fluoropyrrolidin-3-yl)-2-methoxynicotinamide]	6 nM
COc1ncc(-c2c(C#N)cc3c(N)ncnn23)cc1C(=O)N[C@@H]1CN(C(=O)C2CCC(C(F)(F)F)CC2)C[C@@H]1F (single isomer, unassigned) [Example 557]	1980 nM
COc1ncc(-c2cc(C(F)(F)F)c3c(N)ncnn23)cc1C(=O)NC1CN(C2CCCC2C(O)C(F)F)C[C@@H]1F (stereo partly drawn) [Example 1372, 5-[4-amino-5-(trifluoromethyl)-pyrrolo[2,1-f][1,2,4]triazin-7-yl]-N-[(3R,4S)-1-[2-(2,2-difluoro-1-hydroxyethyl)-cyclopentyl]-4-fluoro-pyrrolidin-3-yl]-2-methoxy-pyridine-3-carboxamide]	192 nM
CC(C(=O)N1C[C@H](F)[C@H](NC(=O)c2cc(-c3cc(C(F)(F)F)c4c(N)ncnn34)cc(F)c2Cl)C1)C(F)(F)F (single isomer, unassigned) [Example 1328]	71 nM
COc1ncc(-c2cc(CN3CCC(F)(F)CC3)c3c(N)ncnn23)cc1C(=O)NC1CN(S(=O)(=O)C(C)C(F)(F)F)C[C@@H]1F (stereo partly drawn) [Example 1544, 5-{4-amino-5-[(4,4-difluoropiperidin-1-yl)methyl]pyrrolo[2,1-f][1,2,4]triazin-7-yl}-N-[(3R,4S)-4-fluoro-1-(1,1,1-trifluoropropane-2-sulfonyl)pyrrolidin-3-yl]-2-methoxypyridine-3-carboxamide]	2.3 nM
COc1ncc(-c2cc(C(F)(F)F)c3c(N)ncnn23)cc1C(=O)NC1CN(C(=O)OCC2CC2(F)F)C[C@@H]1F (stereo partly drawn) [Example 1459, (2,2-difluorocyclopropyl)methyl (3R,4S)-3-{5-[4-amino-5-(trifluoromethyl)pyrrolo[2,1-f][1,2,4]triazin-7-yl]-2-methoxypyridine-3-amido}-4-fluoropyrrolidine-1-carboxylate]	2.9 nM
COc1ncc(-c2cc(C(F)(F)F)c3c(N)ncnn23)cc1C(=O)N[C@@H]1CN(C(C)c2ccccc2)C[C@@H]1F (single isomer, unassigned) [Example 433]	3.7 nM

Source: patent publication US11618753B2 (priority 2018, dated 2023)
